{"source": "PubChem BioAssay AID1508624", "about": "(National Center for Advancing Translational Sciences (NCATS), 2021)", "note": "Among all 48,000 compounds or so, about 120 (0.25%) were called active. Roughly 4% stayed inconclusive and do not appear here. The call rests on the fitted dose curve; in most records, active means well fitted activation curve with a large enough effect; inconclusive means small, poorly fitted or top-dose-only effect, or another doubt; inactive means no such curve, though single readings can be large or run the other way. This is one part of the list."}
{"assay": "Primary qHTS for Identification of Small Molecule Activators of Huntingtin-Antisense Promoter Activity; further: nearly all actives have a fitted effect of over 55% in size", "conditions": "HEK293 HTT-AS promoter firefly luciferase reporter, 24 h; series mostly up to 57.5 µM; activity change, positive = activation: at the top concentration", "procedure,_shortened": "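Firefly luciferase signal from promoter-reporter HEK293 cells was scaled between vehicle (0%) and zero RLU (-100%). Compounds were tested at final concentrations of up to 57.5 uM over 24 h at 37 degrees C. PTC124 at 50 uM final served as control inhibitor.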"}
{"smiles": "COc1ccc(C2CC(=O)c3c([nH]c(C(=O)OCc4ccccc4)c3C)C2)cc1", "note": "(configuration not stated)", "activity change, positive = activation": "inactive: -20.6%"}
{"smiles": "COc1ccccc1NC(=O)C1=C(C)Nc2c(C(=O)Nc3ccc(C)cc3)cnn2C1c1cccc(OC)c1OC", "note": "(configuration not stated)", "activity change, positive = activation": "inactive: 2.56%"}
{"smiles": "Cc1ccccc1NC(=O)c1cc2c(-c3ccccc3)nn(-c3ccccc3)c2s1", "activity change, positive = activation": "inactive: -5.27%"}
{"smiles": "COc1ccc(N(Cc2ccccc2)C(=O)c2nc(S(C)(=O)=O)ncc2Cl)cc1", "activity change, positive = activation": "inactive: -93.5%"}
{"smiles": "Cc1ccsc1/C=C/C1=NCCCN1C", "activity change, positive = activation": "inactive: 2.1%"}
{"smiles": "Cc1cccc(N2CCN(C(=O)Cn3nc(C)c4sc5ccccc5c4c3=O)CC2)c1C", "activity change, positive = activation": "inactive: 16.7%"}
{"smiles": "CCCSCCCNC(=O)C1CCN(C(=O)c2cnn(-c3ccccc3)c2-n2cccc2)CC1", "activity change, positive = activation": "inactive: -35.9%"}
{"smiles": "COc1ccc(CNC(=O)Cn2c(=O)nc(-c3ccccc3)c3cc(Cl)ccc32)cc1OC", "activity change, positive = activation": "inactive: 8.93%"}
{"smiles": "COc1cccc(C(=O)Nc2ccc(-n3nncc3-c3ccccc3)cc2)c1OC", "activity change, positive = activation": "inactive: -12.8%"}
{"smiles": "CCn1c2ccccc2c2nnc(N3CCN(c4cccc(Cl)c4)CC3)nc21", "activity change, positive = activation": "inactive: -0.599%"}
{"smiles": "CCOC(=O)c1c(C)[nH]c(CCC(=O)NCc2ccc(OC)c(OC)c2)c1C", "activity change, positive = activation": "inactive: -1.01%"}
{"smiles": "CSc1nn(CC(=O)Nc2ccccc2F)c(N)c1S(=O)(=O)c1ccccc1", "activity change, positive = activation": "inactive: -31%"}
{"smiles": "CC(Cc1ccc(O)c(O)c1)(NN)C(=O)O", "note": "(configuration not stated)", "activity change, positive = activation": "inactive: -11.2%"}
{"smiles": "COc1ccc(CNC(=O)Cc2c(C)c3cc4c(C)coc4cc3oc2=O)cc1", "activity change, positive = activation": "inactive: -5.95%"}
{"smiles": "Cc1ccc(N2CCn3c2nc2c3c(=O)n(C/C=C/c3ccccc3)c(=O)n2C)cc1C", "activity change, positive = activation": "inactive: -6.1%"}
{"smiles": "COCCCNC(=O)Cn1c(=O)n(-c2cccc(C)c2)c(=O)c2c1c1cc(C)ccc1n2C", "activity change, positive = activation": "inactive: -2.96%"}
{"smiles": "CCc1ccc(NC(=O)CCc2c(C)nc3nc(-c4cc(OC)cc(OC)c4)nn3c2C)cc1", "activity change, positive = activation": "inactive: -10.8%"}
{"smiles": "COc1ccc(-c2noc(CCCC(=O)Nc3cccc(Cl)c3C)n2)cc1", "activity change, positive = activation": "inactive: -79.8%"}
{"smiles": "Cc1cc(NS(=O)(=O)c2ccc(N)cc2)nc(C)n1", "activity change, positive = activation": "inactive: -4.38%"}
{"smiles": "Cc1ccc(CN2CCSc3ccc(C(=O)NCc4ccc(OC(C)C)cc4)cc32)cc1", "activity change, positive = activation": "inactive: -23.7%"}
{"smiles": "COc1ccc(-n2nc3ccc(NC(=O)c4c(OC)cccc4OC)cc3n2)cc1", "activity change, positive = activation": "inactive: 8.46%"}
{"smiles": "O=C(Cn1c(=O)n(-c2ccc(F)cc2)c(=O)c2sc3ccccc3c21)NC1CCCC1", "activity change, positive = activation": "inactive: -7.22%"}
{"smiles": "CCc1ccc2oc(C(=O)Nc3ccccc3OC)cc(=O)c2c1", "activity change, positive = activation": "inactive: 15.5% [at 11.5 µM, percent change from vehicle, -100% = no light]"}
{"smiles": "CCc1nc2ccccc2n2c(-c3ccc(C)cc3)c3c(=O)n(C)c(=O)n(C)c3c12", "activity change, positive = activation": "inactive: -6.02%"}
{"smiles": "Cc1cccc(N2CCN(C(c3ccccc3)c3nnc(-c4ccccc4F)o3)CC2)c1C", "note": "(configuration not stated)", "activity change, positive = activation": "inactive: -16.3%"}
{"smiles": "Fc1ccc(Nc2nc(SCc3ccccc3Cl)nc3ccccc23)cc1", "activity change, positive = activation": "inactive: -33.5%"}
{"smiles": "Cc1cc(C)cc(NC(=O)C2CCCN(S(=O)(=O)c3cccc4nsnc34)C2)c1", "note": "(configuration not stated)", "activity change, positive = activation": "inactive: -9.75%"}
{"smiles": "NC(=O)C1CCN(C(=O)c2ccc3c(c2)N(Cc2cccc(Cl)c2)C(=O)c2ccccc2S3=O)CC1", "note": "(configuration not stated)", "activity change, positive = activation": "inactive: -8.74%"}
{"smiles": "COc1ccc(CSc2nc3ccncc3n2CC(=O)Nc2cc(C)cc(C)c2)cc1", "activity change, positive = activation": "inactive: 3.8%"}
{"smiles": "CCOC(=O)c1c(C)[nH]c(C)c1S(=O)(=O)NCC(=O)Nc1ccc(C)cc1C", "activity change, positive = activation": "inactive: -2.89%"}
{"smiles": "Cc1csc2nc(COC(=O)CNC(=O)c3ccc(F)cc3)cc(=O)n12", "activity change, positive = activation": "inactive: 7.39%"}
{"smiles": "CCc1ccc(NCc2cc3ccc(OC)cc3n(CC(=O)Nc3ccccc3C)c2=O)cc1", "activity change, positive = activation": "inactive: -9.04%"}
{"smiles": "COc1ccc(NC(=O)CSc2nc(-c3cccs3)cc(C(F)(F)F)n2)cc1Cl", "activity change, positive = activation": "inactive: -42.6%"}
{"smiles": "CCc1ccc(C(=O)CC2(O)C(=O)N(CCc3ccccc3)c3ccc(Br)cc32)cc1", "note": "(configuration not stated)", "activity change, positive = activation": "inactive: -34.4%"}
{"smiles": "CCc1c(C)sc2c1CCN(Cc1cccc(OC)c1)C2c1ccccc1", "note": "(configuration not stated)", "activity change, positive = activation": "inactive: -32.2%"}
{"smiles": "CCCCN(CCCC)CCNC(=O)Cn1nc(CC)n2c(cc3sccc32)c1=O", "activity change, positive = activation": "inactive: -3.27%"}
{"smiles": "CCC1=Nc2cc(C(=O)NCCc3ccc(OC)c(OC)c3)ccc2Sc2ccccc21", "activity change, positive = activation": "inactive: -38%"}
{"smiles": "COC(=O)c1ccc(Cl)cc1NC(=O)Nc1nnc(N(C)C2CCCCC2)s1", "activity change, positive = activation": "inactive: -14.1%"}
{"smiles": "CCc1ccccc1S(=O)(=O)Cc1ccc(C(=O)NCc2ccc(Cl)cc2)o1", "activity change, positive = activation": "inactive: -40.8%"}
{"smiles": "Cc1ccc(CNC(=O)C(NS(=O)(=O)c2cccs2)C(C)C)cc1", "note": "(configuration not stated)", "activity change, positive = activation": "inactive: -11.1%"}
{"smiles": "COc1ccc(CCC(=O)NCc2ccc3c(c2)CCN3C(=O)c2ccc(Cl)cc2)cc1", "activity change, positive = activation": "inactive: -0.663%"}
{"smiles": "Cc1ccc(CSC2=Nc3ccccc3C3=NC(CCC(=O)NC4CCCCC4)C(=O)N23)cc1", "note": "(configuration not stated)", "activity change, positive = activation": "inactive: -15.5%"}
{"smiles": "CC(=O)c1cccc(NC(=O)CSc2nc3c(c(=O)[nH]2)CCC3)c1", "activity change, positive = activation": "inactive: -5.8%"}
{"smiles": "Cc1ccc(CN(Cc2ccco2)C(=O)c2ccc(Cl)cc2Cl)cc1", "activity change, positive = activation": "inactive: -31.9%"}
{"smiles": "COc1ccc(CCNC(=O)Cn2nnc(-c3ccc(Cl)cc3)n2)cc1OC", "activity change, positive = activation": "inactive: -5.24%"}
{"smiles": "Cc1cccc(NC(=O)CSc2ncc(-c3ccc(Br)cc3)[nH]2)c1", "activity change, positive = activation": "inactive: -11%"}
{"smiles": "O=C(CSc1ccc(-c2cccs2)nn1)Nc1ccccc1", "activity change, positive = activation": "inactive: 1.23%"}
{"smiles": "Cc1cccc(-c2nc(CCNC(=O)COc3ccccc3)cs2)c1", "activity change, positive = activation": "inactive: -8.22%"}
{"smiles": "CCN1CCc2nc(N)oc2CC1", "activity change, positive = activation": "inactive: -11%"}
{"smiles": "CC(=O)c1cccc(NC(=O)Nc2c(C)n(C)n(-c3ccccc3)c2=O)c1", "activity change, positive = activation": "inactive: -24.3%"}
{"smiles": "COc1ccc(-c2cc(-c3ccccc3)nc(SCC(=O)Nc3ccccc3C)c2C#N)cc1", "activity change, positive = activation": "inactive: -2.86%"}
{"smiles": "CCOCCCn1c(SCC(=O)Nc2cc(C)ccc2C)nc2c(oc3ccccc32)c1=O", "activity change, positive = activation": "inactive: -6.89%"}
{"smiles": "COC(=O)c1ccc(NC(=O)CN2CCCN(Cc3ccc(Cl)cc3)S2(=O)=O)cc1", "activity change, positive = activation": "inactive: -32.4%"}
{"smiles": "Cc1ccc(-c2nc3cc(NC(=O)c4cc5ccccc5o4)ccc3o2)cc1Cl", "activity change, positive = activation": "inactive: 9.12%"}
{"smiles": "CCN1CCc2c(sc(NC(=O)c3ccc(S(=O)(=O)N(CCOC)CCOC)cc3)c2C(N)=O)C1", "activity change, positive = activation": "inactive: -4.5%"}
{"smiles": "CN(C)CCNC(=O)c1ccc(-n2c(-c3ccccc3)cc3c2CCCCC3)cc1", "activity change, positive = activation": "inactive: 6.52%"}
{"smiles": "CC(C)Oc1ccc(CN2CCc3nc(Nc4ccc5c(c4)OCCO5)ncc3C2)cc1", "activity change, positive = activation": "inactive: -13.2%"}
{"smiles": "Cc1ccc(Sc2c(C(=O)NCc3cccc(F)c3)[nH]c3ccccc23)cc1", "activity change, positive = activation": "inactive: 0.874%"}
{"smiles": "CC(NC(=O)CN1C(=O)COc2ccc(S(=O)(=O)N3CCCCCC3)cc21)c1ccccc1", "note": "(configuration not stated)", "activity change, positive = activation": "inactive: -18.4%"}
{"smiles": "CCCCCCCCCCCCCC[N+](C)(C)C", "activity change, positive = activation": "inactive: -27.4%"}
{"smiles": "COc1ccc(CC(=O)NCCS(=O)(=O)N2CCN(c3ccccc3F)CC2)cc1OC", "activity change, positive = activation": "inactive: -22.7%"}
{"smiles": "Cc1ccc(C(=O)Nc2ccccc2C(=O)OCc2cc(=O)n3nc(C(C)C)sc3n2)cc1", "activity change, positive = activation": "inactive: 4.41%"}
